Test results: the supplement of paper PMC4967469
Lines with a small IC50 respond at low doses; a fit beyond the top or the lowest dose is shown as a bound at that dose. AUC, from the same fit, is the share of area under the viability curve across the 256-fold dose range; it is 1 without any effect and falls as sensitivity rises. Where the top dose is marked as inferred, it was calculated from the reported fits.

compound: CCOc1cc2ncc(C#N)c(Nc3ccc(F)c(Cl)c3)c2cc1NC(=O)/C=C/CN(C)C [EKB-569]; assay: Viability of human cancer cell lines after 72 h of drug (GDSC screen); conditions: top dose inferred
Protocol: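 Human cancer cell lines in 384-well plates, medium with 10% serum, drug for 72 h over a 256-fold dose range (nine 2-fold or five 4-fold steps up to the top dose). Adherent lines were fixed and stained with the nucleic acid dye Syto60, suspension lines read with resazurin; signal relative to control wells, capped at 0 and 100%. One two-parameter sigmoid per drug and line, fitted in a mixed model over all curves with the slope shared within a line.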

| Cell Line | AUC | IC50 |
| --- | --- | --- |
| C2BBe1 (large intestine, adherent, top dose 2.5 µM) | 0.776 | 1140 nM |
| D-263MG (glioma, adherent, top dose 2.5 µM) | 0.983 | > 2500 nM |
| TGBC24TKB (biliary tract, adherent, top dose 2.5 µM) | 0.948 | > 2500 nM |
| JEG-3 (urogenital system, adherent, top dose 2.5 µM) | 0.991 | > 2500 nM |
| TT2609-C02 (thyroid, adherent, top dose 2.5 µM) | 0.871 | > 2500 nM |
| CHP-126 (neuroblastoma, suspension, top dose 2.5 µM) | 0.965 | > 2500 nM |
| SK-LU-1 (lung adenocarcinoma, adherent, top dose 2.5 µM) | 0.884 | > 2500 nM |
| SU-DHL-1 (anaplastic large cell lymphoma, suspension, top dose 2.5 µM) | 0.844 | 1100 nM |
| DMS-53 (small cell lung carcinoma, adherent, top dose 2.5 µM) | 0.987 | > 2500 nM |
| MKN45 (stomach, adherent, top dose 2.5 µM) | 0.948 | > 2500 nM |
| CAL-62 (thyroid, adherent, top dose 2.5 µM) | 0.975 | > 2500 nM |
| KARPAS-231 (B-cell leukaemia, suspension, top dose 2.5 µM) | 0.606 | 285 nM |
| SU-DHL-4 (B-cell lymphoma, suspension, top dose 2.5 µM) | 0.934 | 2080 nM |
| KARPAS-299 (anaplastic large cell lymphoma, suspension, top dose 2.5 µM) | 0.929 | > 2500 nM |
| HT (B-cell lymphoma, suspension, top dose 2.5 µM) | 0.957 | > 2500 nM |
| COR-L105 (lung adenocarcinoma, adherent, top dose 2.5 µM) | 0.186 | 13.9 nM |
| OSC-20 (head and neck, adherent, top dose 2.5 µM) | 0.861 | > 2500 nM |
| UACC-893 (breast, adherent, top dose 2.5 µM) | 0.509 | 166 nM |
| HUTU-80 (digestive system, adherent, top dose 2.5 µM) | 0.747 | 685 nM |
| NCI-H1666 (lung adenocarcinoma, semi-adherent, top dose 20 µM) | 0.835 | 14900 nM |
| A101D (melanoma, adherent, top dose 2.5 µM) | 0.981 | > 2500 nM |
| MFM-223 (breast, adherent, top dose 2.5 µM) | 0.973 | > 2500 nM |
| D-423MG (glioma, adherent, top dose 2.5 µM) | 0.878 | > 2500 nM |
| BFTC-909 (kidney, adherent, top dose 2.5 µM) | 0.987 | > 2500 nM |
| HT-1376 (bladder, adherent, top dose 2.5 µM) | 0.981 | > 2500 nM |
| NCI-H1688 (small cell lung carcinoma, adherent, top dose 2.5 µM) | 0.972 | > 2500 nM |
| 8305C (thyroid, adherent, top dose 2.5 µM) | 0.966 | > 2500 nM |

| Cell Line | AUC | IC50 |
| --- | --- | --- |
| CMK (acute myeloid leukaemia, suspension, top dose 2.5 µM) | 0.261 | 37.1 nM |
| IST-SL2 (small cell lung carcinoma, suspension, top dose 2.5 µM) | 0.787 | 1080 nM |
| A4-Fuk (B-cell lymphoma, suspension, top dose 2.5 µM) | 0.949 | > 2500 nM |
| MC116 (B-cell lymphoma, suspension, top dose 2.5 µM) | 0.989 | > 2500 nM |
| MRK-nu-1 (breast, suspension, top dose 2.5 µM) | 0.99 | > 2500 nM |
| RERF-LC-MS (lung adenocarcinoma, adherent, top dose 2.5 µM) | 0.97 | > 2500 nM |
| UACC-257 (melanoma, adherent, top dose 2.5 µM) | 0.957 | > 2500 nM |
| D-566MG (glioma, adherent, top dose 2.5 µM) | 0.949 | > 2500 nM |
| IST-MES1 (mesothelioma, adherent, top dose 2.5 µM) | 0.967 | > 2500 nM |
| D-392MG (glioma, adherent, top dose 2.5 µM) | 0.952 | > 2500 nM |
| NCI-H226 (lung squamous cell carcinoma, adherent, top dose 2.5 µM) | 0.961 | > 2500 nM |
| Mewo (melanoma, adherent, top dose 2.5 µM) | 0.968 | > 2500 nM |
| LC-2-ad (lung adenocarcinoma, adherent, top dose 2.5 µM) | 0.831 | 1650 nM |
| MHH-ES-1 (Ewing sarcoma, adherent, top dose 2.5 µM) | 0.917 | > 2500 nM |
| OVCA420 (ovary, adherent, top dose 2.5 µM) | 0.957 | > 2500 nM |
| SKN (uterus, adherent, top dose 2.5 µM) | 0.949 | > 2500 nM |
| OVCAR-3 (ovary, adherent, top dose 2.5 µM) | 0.985 | > 2500 nM |
| LB2241-RCC (kidney, adherent, top dose 2.5 µM) | 0.984 | > 2500 nM |
| LC-1-sq (lung squamous cell carcinoma, adherent, top dose 2.5 µM) | 0.836 | 2080 nM |
| SW1990 (pancreas, adherent, top dose 2.5 µM) | 0.947 | > 2500 nM |
| BICR22 (head and neck, adherent, top dose 2.5 µM) | 0.981 | > 2500 nM |
| BC-1 (B-cell lymphoma, suspension, top dose 2.5 µM) | 0.761 | 765 nM |
| HSC-3 (head and neck, adherent, top dose 2.5 µM) | 0.944 | > 2500 nM |
| NCI-H28 (mesothelioma, adherent, top dose 2.5 µM) | 0.96 | > 2500 nM |
| SK-MES-1 (lung squamous cell carcinoma, adherent, top dose 2.5 µM) | 0.416 | 90 nM |
| DJM-1 (skin, adherent, top dose 2.5 µM) | 0.976 | > 2500 nM |
| NUGC-3 (stomach, adherent, top dose 2.5 µM) | 0.897 | > 2500 nM |

| Cell Line | AUC | IC50 |
| --- | --- | --- |
| HCC1428 (breast, adherent, top dose 2.5 µM) | 0.967 | > 2500 nM |
| HEC-1 (endometrium, adherent, top dose 2.5 µM) | 0.981 | > 2500 nM |
| UWB1.289 (ovary, adherent, top dose 2.5 µM) | 0.883 | > 2500 nM |
| NCI-H1693 (lung adenocarcinoma, adherent, top dose 20 µM) | 0.732 | 8730 nM |
| OAW-28 (ovary, adherent, top dose 2.5 µM) | 0.862 | > 2500 nM |
| Calu-3 (lung adenocarcinoma, adherent, top dose 2.5 µM) | 0.684 | 587 nM |
| HCC-33 (small cell lung carcinoma, adherent, top dose 2.5 µM) | 0.927 | > 2500 nM |
| NCI-H2170 (lung squamous cell carcinoma, adherent, top dose 2.5 µM) | 0.918 | > 2500 nM |
| HT-1197 (bladder, adherent, top dose 2.5 µM) | 0.959 | > 2500 nM |
| Hs939-T (melanoma, adherent, top dose 2.5 µM) | 0.986 | > 2500 nM |
| NCI-H2141 (small cell lung carcinoma, suspension, top dose 2.5 µM) | 0.989 | > 2500 nM |
| RF-48 (stomach, adherent, top dose 2.5 µM) | 0.903 | > 2500 nM |
| HSC-39 (stomach, suspension, top dose 2.5 µM) | 0.922 | > 2500 nM |
| HEL (acute myeloid leukaemia, semi-adherent, top dose 2.5 µM) | 0.395 | 84.6 nM |
| OV-17R (ovary, adherent, top dose 2.5 µM) | 0.931 | > 2500 nM |
| PCI-4B (head and neck, adherent, top dose 2.5 µM) | 0.584 | 261 nM |
| EB2 (Burkitt lymphoma, suspension, top dose 2.5 µM) | 0.576 | 246 nM |
| PA-1 (ovary, adherent, top dose 2.5 µM) | 0.636 | 338 nM |
| JVM-2 (lymphoid neoplasm, suspension, top dose 2.5 µM) | 0.944 | > 2500 nM |
| NCI-H2291 (lung adenocarcinoma, adherent, top dose 2.5 µM) | 0.976 | > 2500 nM |
| HT-144 (melanoma, adherent, top dose 2.5 µM) | 0.967 | > 2500 nM |
| NCI-H2087 (lung adenocarcinoma, semi-adherent, top dose 20 µM) | 0.665 | 3730 nM |
| AMO-1 (haematopoietic neoplasm, suspension, top dose 2.5 µM) | 0.967 | > 2500 nM |
| OE33 (oesophagus, adherent, top dose 2.5 µM) | 0.963 | > 2500 nM |
| MDA-MB-415 (breast, adherent, top dose 2.5 µM) | 0.981 | > 2500 nM |
